Here are results for six molecules from patent US20140154255A1 (AbbVie / Abbott, published 2014).

Assay [1] deals with T1, human VEGF-A residues 27-191 of Accession #AAV38412 (human, UniProt P15692 27-191).
T1 construct: range 27-191
T1 sequence (looked up): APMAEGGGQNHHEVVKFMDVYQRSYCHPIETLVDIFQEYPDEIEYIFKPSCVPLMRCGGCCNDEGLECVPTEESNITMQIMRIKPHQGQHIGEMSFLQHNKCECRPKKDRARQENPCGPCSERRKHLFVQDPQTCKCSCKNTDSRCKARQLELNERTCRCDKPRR
In words: BIAcore SPR, KD WT/KD mutant [continued]. On the procedure: (§1) The binding kinetics and affinity of the antibodies for VEGF (human VEGF-A residues 27-191 of Accession #AAV38412) was determined by using a BIAcore T200 surface plasmon resonance system (BIAcore, GE Healthcare, Piscataway, N.J.). Coupling running buffer was HBS-EP+ running buffer (10 mM HEPES, 150 mM sodium chloride, 3 mM EDTA 0.05% P-20, pH 7.4); assay running buffer was HBS-EP+ with 300 mM sodium chloride and 0.1 mg/mL BSA (Sigma A7906). Polyclonal goat anti-human Fc (Thermo Scientific prod#31125) was first immobilized to the biosensor surface in 10 mM sodium acetate, pH 4.5 using standard BIAcore amine coupling reagents (N-ethyl-N′-dimethylamino-propylcarbodiimide, EDC; N-hydroxysuccinimide, NHS; and ethanolamine HCl, pH 8.5). For binding kinetics assay a series of cycles were performed, each cycle consisted of 1) mAb capture, 2) Ag or buffer injection, 3) dissociation phase and 4) regeneration. Briefly, anti-VEGF antibodies were captured on parallel surfaces at a low flow rate of 10 μL/min. Capture levels were kept low to minimize avidity due to the dimeric nature of VEGF. No capture of the antibody was made on the reference surface to serve for primary referencing and as a negative control. Subsequently, VEGF or buffer only was injected to all flow cells at a flow rate of 80 μL/min for three minutes to monitor association followed by a 20-minute flow of assay rinning buffer at a flow rate of 80 μL/min to monitor dissociation. […] At the end of each cycle the surface was regenerated with 10 mM glycine, pH 1.5 at a flow rate of 60 μL/min in pulses of 60 and 10 sec. Binding data were fit to the 1:1 Langmuir model with mass transport term included using Biacore T200 Evaluation Software to determine the binding constants.

The target in assay [2] is T1, human VEGF-A residues 27-191 of …. Briefly: BIAcore SPR [continued]. As for the experimental part:
as §1
(In general: In SPR one partner is held on a chip, and binding of the other changes the refractive index at the surface.)

B1: SL DLL4-VEGF DVD-Ig variant N31F (bispecific antibody)
heavy: EVQLVESGGGLVQPGGSLRLSCAASGFTFSNFPMAWVRQAPGKGLEWVATISSSDGTTYYRDSVKGRFTISRDNAKNSLYLQMNSLRAEDTAVYYCARGYYNSPFAYWGQGTLVTVSSASTKGPEVQLVESGGGLVQPGGSLRLSCAASGYTFTFYGMNWVRQAPGKGLEWVGWINTYTGEPTYAADFKRRFTFSLDTSKSTAYLQMNSLRAEDTAVYYCAKYPHYYGSSHWYFDVWGQGTLVTVSSASTKGPSVFPLAPSSKSTSGGTAALGCLVKDYFPEPVTVSWNSGALTSGVHTFPAVLQSSGLYSLSSVVTVPSSSLGTQTYICNVNHKPSNTKVDKKV[gap - human IgG1 Fc with changes]
light: DIQMTQSPSSLSASVGDRVTITCRASEDIYSNLAWYQQKPGKAPKLLIYDTNNLADGVPSRFSGSGSGTDFTLTISSLQPEDFATYYCQQYNNYPPTFGQGTKLEIKRTVAAPSVFIFPPDIQMTQSPSSLSASVGDRVTITCSASQDISNYLNWYQQKPGKAPKVLIYFTSSLHSGVPSRFSGSGSGTDFTLTISSLQPEDFATYYCQQYSTVPWTFGQGTKVEIKRTVAAPSVFIFPPSDEQLKSGTASVVCLLNNFYPREAKVQWKVDNALQSGNSQESVTEQDSKDSTYSLSSTLTLSKADYEKHKVYACEVTHQGLSSPVTKSFNRGEC
notes: also called N31F (SL linked DVD-Ig)
Turning to B1, the affinity improvement in assay [1] worked out at 2.5 fold. In assay [2], this molecule displayed a Kd of 520 pM, a koff of 2.45e-05 s⁻¹ and a kon of 47100 M⁻¹ s⁻¹.

B2: SL DLL4-VEGF DVD-Ig variant S100aT (bispecific antibody)
heavy: EVQLVESGGGLVQPGGSLRLSCAASGFTFSNFPMAWVRQAPGKGLEWVATISSSDGTTYYRDSVKGRFTISRDNAKNSLYLQMNSLRAEDTAVYYCARGYYNSPFAYWGQGTLVTVSSASTKGPEVQLVESGGGLVQPGGSLRLSCAASGYTFTNYGMNWVRQAPGKGLEWVGWINTYTGEPTYAADFKRRFTFSLDTSKSTAYLQMNSLRAEDTAVYYCAKYPHYYGTSHWYFDVWGQGTLVTVSSASTKGPSVFPLAPSSKSTSGGTAALGCLVKDYFPEPVTVSWNSGALTSGVHTFPAVLQSSGLYSLSSVVTVPSSSLGTQTYICNVNHKPSNTKVDKKV[gap - human IgG1 Fc with changes]
light: DIQMTQSPSSLSASVGDRVTITCRASEDIYSNLAWYQQKPGKAPKLLIYDTNNLADGVPSRFSGSGSGTDFTLTISSLQPEDFATYYCQQYNNYPPTFGQGTKLEIKRTVAAPSVFIFPPDIQMTQSPSSLSASVGDRVTITCSASQDISNYLNWYQQKPGKAPKVLIYFTSSLHSGVPSRFSGSGSGTDFTLTISSLQPEDFATYYCQQYSTVPWTFGQGTKVEIKRTVAAPSVFIFPPSDEQLKSGTASVVCLLNNFYPREAKVQWKVDNALQSGNSQESVTEQDSKDSTYSLSSTLTLSKADYEKHKVYACEVTHQGLSSPVTKSFNRGEC
notes: also called S100aT (SL linked DVD-Ig)
On to B2, for which the affinity improvement in assay [1] was found to be 1.6 fold. In assay [2], this molecule yielded a Kd of 810 pM, a koff of 5.02e-05 s⁻¹ and a kon of 61700 M⁻¹ s⁻¹.

B3: SL DLL4-VEGF DVD-Ig variant T30N (bispecific antibody)
heavy: EVQLVESGGGLVQPGGSLRLSCAASGFTFSNFPMAWVRQAPGKGLEWVATISSSDGTTYYRDSVKGRFTISRDNAKNSLYLQMNSLRAEDTAVYYCARGYYNSPFAYWGQGTLVTVSSASTKGPEVQLVESGGGLVQPGGSLRLSCAASGYTFNNYGMNWVRQAPGKGLEWVGWINTYTGEPTYAADFKRRFTFSLDTSKSTAYLQMNSLRAEDTAVYYCAKYPHYYGSSHWYFDVWGQGTLVTVSSASTKGPSVFPLAPSSKSTSGGTAALGCLVKDYFPEPVTVSWNSGALTSGVHTFPAVLQSSGLYSLSSVVTVPSSSLGTQTYICNVNHKPSNTKVDKKV[gap - human IgG1 Fc with changes]
light: DIQMTQSPSSLSASVGDRVTITCRASEDIYSNLAWYQQKPGKAPKLLIYDTNNLADGVPSRFSGSGSGTDFTLTISSLQPEDFATYYCQQYNNYPPTFGQGTKLEIKRTVAAPSVFIFPPDIQMTQSPSSLSASVGDRVTITCSASQDISNYLNWYQQKPGKAPKVLIYFTSSLHSGVPSRFSGSGSGTDFTLTISSLQPEDFATYYCQQYSTVPWTFGQGTKVEIKRTVAAPSVFIFPPSDEQLKSGTASVVCLLNNFYPREAKVQWKVDNALQSGNSQESVTEQDSKDSTYSLSSTLTLSKADYEKHKVYACEVTHQGLSSPVTKSFNRGEC
notes: also called T30N (SL linked DVD-Ig)
Turning to B3, in assay [1], the affinity improvement is 1.5 fold. In assay [2], this molecule gave a Kd of 703 pM, a koff of 3.01e-05 s⁻¹ and a kon of 42800 M⁻¹ s⁻¹.

B4: SL DLL4-VEGF DVD-Ig variant N31Y (bispecific antibody)
heavy: EVQLVESGGGLVQPGGSLRLSCAASGFTFSNFPMAWVRQAPGKGLEWVATISSSDGTTYYRDSVKGRFTISRDNAKNSLYLQMNSLRAEDTAVYYCARGYYNSPFAYWGQGTLVTVSSASTKGPEVQLVESGGGLVQPGGSLRLSCAASGYTFTYYGMNWVRQAPGKGLEWVGWINTYTGEPTYAADFKRRFTFSLDTSKSTAYLQMNSLRAEDTAVYYCAKYPHYYGSSHWYFDVWGQGTLVTVSSASTKGPSVFPLAPSSKSTSGGTAALGCLVKDYFPEPVTVSWNSGALTSGVHTFPAVLQSSGLYSLSSVVTVPSSSLGTQTYICNVNHKPSNTKVDKKV[gap - human IgG1 Fc with changes]
light: DIQMTQSPSSLSASVGDRVTITCRASEDIYSNLAWYQQKPGKAPKLLIYDTNNLADGVPSRFSGSGSGTDFTLTISSLQPEDFATYYCQQYNNYPPTFGQGTKLEIKRTVAAPSVFIFPPDIQMTQSPSSLSASVGDRVTITCSASQDISNYLNWYQQKPGKAPKVLIYFTSSLHSGVPSRFSGSGSGTDFTLTISSLQPEDFATYYCQQYSTVPWTFGQGTKVEIKRTVAAPSVFIFPPSDEQLKSGTASVVCLLNNFYPREAKVQWKVDNALQSGNSQESVTEQDSKDSTYSLSSTLTLSKADYEKHKVYACEVTHQGLSSPVTKSFNRGEC
notes: also called N31Y (SL linked DVD-Ig)
With B4, the affinity improvement in assay [1] worked out at 4.6 fold. Moreover, in assay [2], the Kd was 236 pM, the koff worked out at 1.4e-05 s⁻¹ and the kon stood at 59200 M⁻¹ s⁻¹.

B5: SL DLL4-VEGF DVD-Ig variant N31H (bispecific antibody)
heavy: EVQLVESGGGLVQPGGSLRLSCAASGFTFSNFPMAWVRQAPGKGLEWVATISSSDGTTYYRDSVKGRFTISRDNAKNSLYLQMNSLRAEDTAVYYCARGYYNSPFAYWGQGTLVTVSSASTKGPEVQLVESGGGLVQPGGSLRLSCAASGYTFTHYGMNWVRQAPGKGLEWVGWINTYTGEPTYAADFKRRFTFSLDTSKSTAYLQMNSLRAEDTAVYYCAKYPHYYGSSHWYFDVWGQGTLVTVSSASTKGPSVFPLAPSSKSTSGGTAALGCLVKDYFPEPVTVSWNSGALTSGVHTFPAVLQSSGLYSLSSVVTVPSSSLGTQTYICNVNHKPSNTKVDKKV[gap - human IgG1 Fc with changes]
light: DIQMTQSPSSLSASVGDRVTITCRASEDIYSNLAWYQQKPGKAPKLLIYDTNNLADGVPSRFSGSGSGTDFTLTISSLQPEDFATYYCQQYNNYPPTFGQGTKLEIKRTVAAPSVFIFPPDIQMTQSPSSLSASVGDRVTITCSASQDISNYLNWYQQKPGKAPKVLIYFTSSLHSGVPSRFSGSGSGTDFTLTISSLQPEDFATYYCQQYSTVPWTFGQGTKVEIKRTVAAPSVFIFPPSDEQLKSGTASVVCLLNNFYPREAKVQWKVDNALQSGNSQESVTEQDSKDSTYSLSSTLTLSKADYEKHKVYACEVTHQGLSSPVTKSFNRGEC
notes: also called N31H (SL linked DVD-Ig)
Take B5: the affinity improvement in assay [1] amounted to 1.8 fold. Also, in assay [2], binding was characterised by a dissociation constant (Kd) of 730 pM, the koff turned out to be 3.15e-05 s⁻¹ and the kon was found to be 42900 M⁻¹ s⁻¹.

B6: SL DLL4-VEGF DVD-Ig variant N31W (bispecific antibody)
heavy: EVQLVESGGGLVQPGGSLRLSCAASGFTFSNFPMAWVRQAPGKGLEWVATISSSDGTTYYRDSVKGRFTISRDNAKNSLYLQMNSLRAEDTAVYYCARGYYNSPFAYWGQGTLVTVSSASTKGPEVQLVESGGGLVQPGGSLRLSCAASGYTFTWYGMNWVRQAPGKGLEWVGWINTYTGEPTYAADFKRRFTFSLDTSKSTAYLQMNSLRAEDTAVYYCAKYPHYYGSSHWYFDVWGQGTLVTVSSASTKGPSVFPLAPSSKSTSGGTAALGCLVKDYFPEPVTVSWNSGALTSGVHTFPAVLQSSGLYSLSSVVTVPSSSLGTQTYICNVNHKPSNTKVDKKV[gap - human IgG1 Fc with changes]
light: DIQMTQSPSSLSASVGDRVTITCRASEDIYSNLAWYQQKPGKAPKLLIYDTNNLADGVPSRFSGSGSGTDFTLTISSLQPEDFATYYCQQYNNYPPTFGQGTKLEIKRTVAAPSVFIFPPDIQMTQSPSSLSASVGDRVTITCSASQDISNYLNWYQQKPGKAPKVLIYFTSSLHSGVPSRFSGSGSGTDFTLTISSLQPEDFATYYCQQYSTVPWTFGQGTKVEIKRTVAAPSVFIFPPSDEQLKSGTASVVCLLNNFYPREAKVQWKVDNALQSGNSQESVTEQDSKDSTYSLSSTLTLSKADYEKHKVYACEVTHQGLSSPVTKSFNRGEC
notes: also called N31W (SL linked DVD-Ig)
For the molecule B6, the affinity improvement in assay [1] worked out at 1.7 fold. For the same molecule, in assay [2], binding was put at a Kd of 750 pM, the koff is 2.77e-05 s⁻¹ and the on-rate (kon) came out at 37100 M⁻¹ s⁻¹.

The Kd is the constant that tells how readily two partners part at equilibrium. A higher Kd goes with lower affinity. For orientation: koff means the first-order rate constant of dissociation. Usually kon stands for the second-order rate constant of association.
